The other results are listed elsewhere or left out. Sequences were assembled here from the parent chain. Inactive controls read about 0.05.
B1: TEV protease; numbered along this chain (parent)
chain: MGESLFKGPRDYNPISSSICHLTNESDGHTTSLYGIGFGPFIITNKHLFRRNNGTLVVQSLHGVFKVKDTTTLQQHLVDGRDMIIIRMPKDFPPFPQKLKFREPQREERICLVTTNFQTKSMSSMVSDTSCTFPSGDGIFWKHWIQTKDGQCGSPLVSTRDGFIVGIHSASNFTNTNNYFTSVPKNFMELLTNQEAQQWVSGWRLNADSVLWGGHKVFMVKPEEPFQPVKEATQL

Variants of: B1
Test: raw area under fraction-flipped curve 0-4 h after induction (AUC4h, not background-subtracted), DNA-recorder readout of cleavage of the substrate (dimensionless); higher = more cleavage of the substrate by the protease variant
Settings: temperature: 34 °C; time window: 0-4 h after rhamnose induction
Experimental: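 In vivo DNA recorder in E. coli TOP10(DE3) ΔrhaA at 34 °C. Each TEVp single-site mutant (parent TEVp 0) is paired with a single-site variant of the 7-mer TEVs (canonical ENLYFQ|S). The substrate sits between flexible linkers in a Bxb1-sfGFP-TEVs-SsrA fusion, so cleavage stabilises Bxb1 and speeds flipping of a recombination array, read by NGS. The value is the raw area under the fraction-flipped curve over 0-4 h after rhamnose induction (AUC4h), with ≥20 reads per time point. It is not background-subtracted; inactive controls average about 0.047.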
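Note: Bxb1 expression induced with 0.2% (w/v) L-rhamnose at OD600 near 0.5, cultures sampled hourly, flipped fraction per protease–substrate barcode pair counted by paired-end Illumina sequencing.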

Variant | area with substrate ENLYFQC | area with substrate ENLYFQD | area with substrate ENLYFQF | area with substrate ENLYFQG | area with substrate ENLYFQH | area with substrate ENLYFQI | area with substrate ENLYFQK | area with substrate ENLYFQL | area with substrate ENLYFQM | area with substrate ENLYFQN | area with substrate ENLYFQR | area with substrate ENLYFQS | area with substrate ENLYFQT | area with substrate ENLYFQV | area with substrate ENLYFQY | area with substrate ENLYFQE | area with substrate ENLYFQQ | area with substrate ENLYFQP | area with substrate ENLYFQW | area with substrate ENLYFQA
S4T | 0.16 | 0.0881 | 0.116 | 0.107 | 0.102 | 0.061 | 0.0747 | 0.0739 | 0.182 | 0.094 | 0.0531 | 0.134 | 0.0689 | 0.0591 | 0.0709 | – | – | – | – | –
T30Q | 0.145 | 0.0651 | – | 0.0699 | 0.0698 | 0.0666 | 0.0614 | 0.0727 | 0.0941 | 0.082 | 0.0537 | 0.0906 | 0.065 | 0.0653 | – | 0.06 | 0.0633 | – | – | –
N24M | 0.125 | – | 0.0774 | – | 0.0844 | 0.067 | 0.0652 | 0.0693 | 0.0834 | 0.0846 | 0.0673 | 0.0948 | 0.0947 | – | – | – | – | 0.0606 | 0.0725 | –
V210C | 0.106 | 0.0617 | – | – | – | 0.0644 | 0.063 | 0.0584 | 0.0767 | 0.0701 | 0.0652 | 0.103 | 0.0608 | 0.0511 | – | – | 0.0606 | 0.0479 | 0.067 | 0.103
V210S | 0.0976 | 0.0616 | – | – | 0.0571 | – | 0.0635 | 0.0453 | – | 0.063 | – | 0.0932 | 0.0542 | 0.0883 | 0.0523 | 0.0557 | 0.0607 | 0.0672 | 0.0527 | 0.0764
V210Q | 0.0972 | 0.0463 | – | 0.0807 | 0.0736 | 0.0423 | 0.0583 | 0.0587 | 0.0651 | 0.063 | 0.0566 | 0.0948 | 0.0691 | – | 0.0469 | – | 0.0683 | 0.0543 | 0.0723 | 0.0948
T55F | 0.107 | 0.0732 | 0.0369 | 0.0918 | – | – | 0.0679 | 0.0577 | – | 0.0725 | 0.0591 | 0.0984 | 0.0798 | – | – | – | – | 0.0537 | 0.0643 | –
Q227S | – | – | – | – | – | – | – | – | 0.0897 | 0.065 | 0.0582 | 0.106 | – | 0.0604 | – | – | – | 0.0592 | 0.0657 | 0.116
H29K | 0.177 | – | – | 0.0881 | – | 0.0674 | – | – | – | – | 0.0675 | 0.0963 | 0.0649 | 0.0235 | – | – | – | – | – | –
H29V | 0.108 | 0.0727 | 0.0961 | 0.0992 | 0.084 | 0.0636 | 0.0516 | 0.0676 | 0.121 | 0.0687 | 0.0547 | 0.107 | 0.0617 | 0.0565 | – | 0.0582 | – | 0.0546 | – | –
H29S | 0.102 | 0.0964 | – | 0.0974 | 0.0822 | 0.0742 | 0.0595 | 0.0591 | 0.0962 | – | 0.0715 | 0.115 | 0.0778 | 0.0709 | 0.0736 | 0.0747 | – | 0.0587 | 0.0665 | –
N45R | 0.0637 | 0.0496 | 0.0397 | 0.0622 | 0.0655 | – | 0.0561 | 0.0945 | 0.0573 | 0.0566 | 0.0575 | 0.0599 | 0.0548 | 0.0643 | 0.0417 | – | 0.0561 | 0.0727 | – | –
V229M | 0.105 | – | – | – | 0.0816 | – | 0.065 | – | 0.0842 | 0.0716 | 0.0444 | 0.1 | 0.0656 | – | 0.093 | – | 0.0625 | – | 0.0877 | 0.093
L77G | 0.0499 | – | – | 0.0658 | 0.0698 | 0.0651 | – | – | 0.0597 | 0.0559 | – | 0.0701 | – | 0.0234 | – | – | – | 0.0579 | 0.0503 | –
L77E | 0.0678 | – | – | 0.0658 | – | – | 0.0663 | – | 0.0552 | 0.063 | 0.0474 | 0.0677 | – | 0.047 | 0.0529 | – | – | 0.0513 | 0.0717 | –
V220D | 0.134 | 0.081 | – | 0.101 | 0.0926 | 0.0602 | 0.0563 | 0.0589 | 0.0838 | 0.0945 | 0.0533 | 0.122 | 0.0673 | 0.0829 | 0.0943 | – | 0.071 | 0.0556 | 0.0629 | 0.127
V220N | 0.116 | – | 0.087 | 0.106 | 0.0747 | – | 0.0677 | 0.0551 | 0.086 | 0.0927 | 0.0589 | 0.112 | 0.0725 | – | – | – | – | – | 0.0629 | 0.0733
K230I | – | 0.0818 | 0.107 | 0.0894 | 0.0599 | 0.0687 | 0.0631 | 0.0578 | 0.0711 | 0.0758 | – | 0.0912 | 0.0618 | – | 0.0764 | – | 0.023 | – | – | 0.0896
K230P | 0.116 | 0.0676 | 0.101 | 0.0707 | 0.0687 | 0.061 | – | 0.0658 | 0.0912 | 0.065 | 0.0501 | 0.105 | 0.0505 | – | – | – | – | 0.027 | – | 0.0959
H21L | 0.085 | 0.0607 | – | 0.0992 | – | 0.0701 | 0.0552 | 0.0613 | 0.0898 | 0.0811 | – | 0.0931 | 0.0536 | 0.0595 | 0.106 | – | – | 0.0639 | 0.0674 | –
I36F | 0.0882 | 0.0656 | 0.0557 | 0.0723 | 0.0489 | 0.053 | – | – | 0.0733 | 0.0604 | 0.0674 | 0.084 | 0.048 | 0.0558 | – | – | – | 0.0444 | 0.074 | –
N13Y | 0.1 | 0.0709 | – | 0.112 | – | 0.0503 | 0.0604 | – | – | 0.0738 | 0.0509 | 0.0988 | 0.0635 | 0.0663 | 0.114 | – | 0.0733 | – | 0.0666 | –
G214Y | 0.063 | 0.0551 | 0.0871 | 0.0709 | – | 0.0601 | – | 0.0583 | – | 0.0486 | 0.0465 | 0.0737 | – | – | – | – | – | – | – | 0.0723
Q59M | 0.123 | 0.0649 | 0.112 | 0.115 | – | – | 0.0434 | 0.0646 | 0.0825 | – | 0.0567 | 0.102 | 0.0744 | – | 0.0611 | 0.0451 | 0.103 | 0.052 | – | –
P222E | 0.135 | 0.0664 | 0.0715 | 0.139 | 0.0771 | 0.0562 | 0.0598 | 0.0518 | 0.0859 | – | 0.0803 | 0.111 | 0.0565 | 0.0608 | 0.0868 | – | – | 0.0629 | 0.0502 | 0.0848
S18W | 0.0771 | – | – | – | – | 0.0569 | 0.0599 | 0.0585 | 0.107 | – | 0.074 | 0.0748 | 0.0593 | 0.0664 | – | – | – | 0.0713 | 0.0564 | –
